59 molecules from ChEMBL document CHEMBL1157539, “Thousands of chemical starting points for antimalarial lead identification” (Nature, 2010) can be followed below.

SMILES strings stand for the structures. Whole data set: some 13,000 compounds, median “IFI” near 4, cut for the highest 2% near 17. This is one part of the list.

The nature of this assay: GSK_TCMDC: Inhibition Frequency Index (IFI). The number of non-kinase HTS assays where a compound showed > 50 % inhibition, expressed as a percentage of the number of such assays in which the compound was tested (-0 is zero). The assay is classed as functional.
In turn, `O=C(Nc1ccc(Cl)cc1)c1ccc(CN2CCCN(CC3CCCCC3)CC2)cc1` had an IFI of 9.45%. In turn, `O=C(NC1CC1)c1ccc(N2CCC(Oc3ccc(F)cc3)CC2)nc1` yielded an IFI of -0%.

The molecule `COc1ccccc1Cn1ccnc1SCC(=O)Nc1cccc(C(F)(F)F)c1` came in with an IFI of 2.38%. Next, `c1ccc(C2=NN=C(c3ccccn3)C3C4CC(C23)C2C3CC(c5ccccc53)C42)nc1` (centres undefined): 8.89%; `Cc1ccc(C(NC(=O)C2CCCCC2)c2ccc3cccnc3c2O)cc1` (centres undefined): 7.08%. `CC(=O)N[C@H](C(=O)Nc1cccc(-c2ccc(-c3nc4cccc(C)c4[nH]3)s2)c1)C(C)C` came in with an IFI of 4.55%. The same measure for `COc1ccc2c(NN=Cc3cccc(F)c3)ccnc2c1`: 4.9%; for `O=C(/C=C/c1ccc(Cl)c(Cl)c1)N1CCC(CCN2CCC(c3c[nH]c4cnccc34)CC2)CC1`: 13.5%. Turning to `CC1CC(C)CN(CCCNc2ccc(C(=O)Nc3ccc(C(F)(F)F)cc3)cc2[N+](=O)[O-])C1` (centres undefined), the IFI stood at 4.44%.

Regarding `CCN(CC)c1ccc2nc(N)nc(N)c2c1Cl`, the IFI was 1.47%.

`CCn1c(-c2nonc2N)nc2c(-c3cccc(NC(=O)Nc4ccc(C#N)cc4)c3)ncc(OCCCN)c21` displayed an IFI of 15.7%.

`Cc1cc(N2CC=CCC2)nc(NC(=N)Nc2ccc(Br)cc2)n1` showed an IFI of 1.47%.

In turn, `CCN1CCN(c2cc(C)c3cc(NC(=O)c4ccc(C(C)(C)C)cc4)ccc3n2)CC1` returned an IFI of 4.7%.

For `C=C(F)c1sc(CNCCCNc2nc3ccccc3[nH]2)c(C)c1Br`, the IFI is 2.21%.

For the molecule `COc1ccc(NC(=O)CCNc2cc(C)nc(NCCOc3ccccc3)n2)cc1`, the IFI came out at 4.88%.

Take `Cc1ccc(-c2nc(NC(=O)Nc3ccc(C(F)(F)F)cc3)sc2C)cc1Cl`: the IFI is 6.16%.

`CC(C)(C)c1cc(NC(=O)c2ccc(Cl)c([N+](=O)[O-])c2)cc(C(C)(C)C)c1` returned an IFI of 2.78%. Next, `Nc1nc(N)c2c(ccc3c2cnn3Cc2cccnc2)n1`: 1.53%. The same measure for `CCc1cn2c3c(cc(C(=O)N[C@@H](Cc4ccccc4)[C@H](O)CNC4CCCCC4)cc13)N(C)S(=O)(=O)C2`: 5.07%; for `CO/C(=C\C=C\c1cc2cc(Cl)c(Cl)cc2[nH]1)C(=O)NC1CCN(CCNc2ccccc2)CC1`: 9.3%; for `N=C(Nc1cccc(Cc2ccccc2)n1)Nc1ncccn1`: 17.2%.

`COc1cc2c(cc1OCCN1CCC(N3CCCCC3)CC1)N(C(=O)/C=C/c1ccccc1Cl)CC2` gave an IFI of 4.35%. Next, `CN1CCC(NC(=O)c2cccc(Nc3cc(Nc4cccc(Br)c4)ncn3)c2)CC1`: 2.27%; `CC=CC(=O)N1CCN(c2nccc(-c3ccc(C(C)(C)C)cc3)n2)CC1`: 5.26%; `S=C(NN=Cc1ccccn1)NC1CC2C=CC1C2` (centres undefined): 6.29%. Molecule `CCCCCCOc1ccc(C(=O)NCCC2CCN(CCCCCNC(=O)C=Cc3ccc(Cl)c(Cl)c3)CC2)cc1` had an IFI of 6.11%. The same measure for `N=c1n(Cc2ccccc2)c2ccccc2n1CC(O)c1ccc(Cl)cc1` (centres undefined): 6.31%; for `CCCCCCN1CCC(NCc2ccc(Cl)cc2)CC1`: 4.08%; for `O=C(CSc1nc2ccc([N+](=O)[O-])cc2s1)Nc1ccccc1-c1ccccc1`: 4.39%. With `CN(C)c1nc(NN=Cc2cc(Cl)ccc2O)nc(Nc2ccc(F)cc2)n1`, the IFI was found to be 6.52%. `c1cc(COc2ccc(C3=NCCN3)cc2)nc(COc2ccc(C3=NCCN3)cc2)c1` had an IFI of 0.75%. The same measure for `COc1cc(CN2CCC(C(=O)Nc3ccc(-c4cccc(C)c4)cc3)CC2)ccc1O`: 11.6%; for `COc1cc2ncnc(Nc3ccc(OCc4ccccc4Br)c(Cl)c3)c2cc1OC`: 1.38%; for `COc1cc(Cc2cnc(N)nc2N)cc(OCCCCNS(=O)(=O)C(F)(F)F)c1OC`: 1.53%. Next, `CCN(CCCN1CCCCC1)c1cc(C)nc(Nc2cc(C(F)(F)F)ccc2C)n1`: 3.85%; `O=C(/C=C/c1ccc(Cl)c(Cl)c1)NC1CCC(CN2CCC(c3nc4cc(O)ccc4[nH]3)CC2)CC1` (centres undefined): 8.21%; `Cc1ccc2[nH]c(C)cc(=NN=Cc3ccc(Cl)cc3)c2c1`: 0.72%. The molecule `Cn1c2ccccc2c2c3ccccc3c(CNC(CO)(CO)CO)cc21` displayed an IFI of 7.69%. The molecule `O=C(O[C@H]1CN[C@H](C#Cc2cc3ncnc(Nc4ccc5c(ccn5S(=O)(=O)c5cccs5)c4)c3s2)C1)N1CCOCC1` yielded an IFI of 2.8%. Next, `O=C(c1cccs1)N1N=C(c2cccs2)CC1c1cccc([N+](=O)[O-])c1` (centres undefined): 4.29%; `NC1=NC(c2ccccc2)(c2ccccc2)C(=O)N1Cc1ccc(-c2ccncc2)cc1`: 4.46%; `COc1ccc(C2CC(c3cccs3)=NN2C(=O)c2ccco2)cc1OC` (centres undefined): 1.32%. For the molecule `CC(C)NCc1ccc(-c2ccc(NS(=O)(=O)c3cccc4cccnc34)cc2)cc1`, the IFI was found to be 5.79%. In turn, `CN1CCCN(Cc2ccc(-c3cccc(NC(=O)c4ccc(Cl)cc4)c3)cc2)CC1` showed an IFI of 2.86%. The same measure for `Cc1ccc(-c2ccc(NC(=O)N3CCc4cc(Br)c(N5CCN(C)CC5)cc43)cc2)cn1`: 8.33%; for `CN(CCN1CCC(c2c[nH]c3ccccc23)CC1)C(=O)OCCCCCNC(=O)/C=C/c1ccc(Cl)c(Cl)c1`: 12.8%; for `COc1ccc(CCNCCCCCCNCCc2ccc(-c3ccccc3)cc2)cc1OC`: 7.19%. With `Cc1cc(CN2CC[C@H](NC(=O)c3ccc(Cl)c(Cl)c3)C2)ccc1OCCN1CCCC1`, the IFI is 9.68%. The same measure for `CC(=O)Oc1c(Cl)c(C)nc(C)c1-c1ccc(Oc2ccc(Cl)cc2)cc1`: 5.43%.

In turn, `Cc1ccccc1C1CCN(c2ccc(C(=O)NC3CC3)cn2)CC1` gave an IFI of 8%. The same measure for `CC(C)C[C@H]1C(=O)N[C@H](C2Cc3ccccc3C2)C(=O)N1[C@@H](C(=O)Nc1ccccc1OCc1ccccc1)c1ccc(F)cc1F`: 2.94%. The same measure for `Clc1ccc(-c2[nH]c3ccccc3c2CN2CCC(N3CCCCC3)CC2)cc1`: 4%; for `CN1CCN(c2ccc(Cl)cc2NC(=O)C2COc3ccccc3O2)CC1` (centres undefined): 3.7%; for `COc1ccc(Nc2nccc(-c3ccc(NC(=O)c4cc5cc(F)ccc5[nH]4)cc3)n2)cc1`: 3.08%. Next, `Cc1cnc(Nc2cccc(CCN3CCOCC3)c2)nc1NC(C)C`: 17.2%; `Cc1ncccc1-c1cccc2c(NC(=O)Nc3ccc4nccc(N5CCN(C)CC5)c4c3)cccc12`: 2.88%; `c1ccc2[nH]c(CN(Cc3nc4ccccc4[nH]3)Cc3nc4ccccc4[nH]3)nc2c1`: 6.25%. Molecule `O=C(Nc1cccc(CN2CCN(C(=O)c3cccs3)CC2)c1)c1cccs1` came in with an IFI of 3.01%. Molecule `CN(CCCCNC(=O)c1cc2ccccc2[nH]1)C1CC2(CCN(C(=O)OC(C)(C)C)CC2)c2ccccc21` (centres undefined) returned an IFI of 4.55%.
